Results: patent publication US11178870B2 (priority 2017, dated 2021)

Assays:
Magnaporthe grisea = format: in vivo; settings: Blast on rice
Phytophthora infestans = format: in vivo; settings: Late blight on tomato

| Structure (SMILES) | Test A control value (Magnaporthe grisea) | Test F control value (Phytophthora infestans) |
| --- | --- | --- |
| CCn1c(-c2c(F)cc(OC)cc2F)c(-c2ocnc2Br)cc(Br)c1=O [Compound 103] | H (H shows the control value more than 50%) | L (L shows the control value of 50% or less) |
| Cn1c(-c2c(F)cc(F)cc2F)c(-c2cccnc2Cl)cc(Br)c1=O [Compound 104] | H (H shows the control value more than 50%) | L (L shows the control value of 50% or less) |
| Cn1c(-c2c(F)cccc2F)c(-c2cccnc2Cl)cc(Br)c1=O [Compound 106] | H (H shows the control value more than 50%) | H (H shows the control value more than 50%) |
| CCn1c(-c2c(F)cc(F)cc2F)c(-c2ocnc2Cl)cc(Br)c1=O [Compound 107] | H (H shows the control value more than 50%) | L (L shows the control value of 50% or less) |
| CCn1c(-c2c(F)cc(F)cc2F)c(-n2cc(Br)c(C)n2)ccc1=O [Compound 108] | H (H shows the control value more than 50%) | L (L shows the control value of 50% or less) |
| CCn1c(-c2c(F)cc(F)cc2F)c(-n2cc(C)c(C)n2)ccc1=O [Compound 109] | H (H shows the control value more than 50%) | L (L shows the control value of 50% or less) |
| O=c1c(Cl)cc(-n2cc(Cl)cn2)c(-c2c(F)cc(F)cc2F)n1CC(F)F [Compound 110] | H (H shows the control value more than 50%) | L (L shows the control value of 50% or less) |
| COc1cc(F)c(-c2c(-n3cc(Cl)cn3)cc(Cl)c(=O)n2CC(F)F)c(F)c1 [Compound 111] | H (H shows the control value more than 50%) | L (L shows the control value of 50% or less) |
| CCn1c(-c2c(F)cc(F)cc2F)c(-c2ocnc2Br)cc(Cl)c1=O [Compound 113] | H (H shows the control value more than 50%) | L (L shows the control value of 50% or less) |
| CCn1c(-c2c(F)cc(OC)cc2F)c(-c2oc(Cl)nc2Cl)cc(Cl)c1=O [Compound 114] | H (H shows the control value more than 50%) | L (L shows the control value of 50% or less) |
| CCn1c(-c2c(F)cc(OC)cc2F)c(-c2ocnc2Cl)cc(Cl)c1=O [Compound 115] | H (H shows the control value more than 50%) | L (L shows the control value of 50% or less) |
| CCn1c(-c2c(F)cc(OC)cc2F)c(-c2oc(Br)nc2Br)cc(Cl)c1=O [Compound 116] | H (H shows the control value more than 50%) | H (H shows the control value more than 50%) |
| CCn1c(-c2c(F)cc(F)cc2F)c(-n2nc(C)c(Br)c2C)cc(Br)c1=O [Compound 117] | L (L shows the control value of 50% or less) | L (L shows the control value of 50% or less) |
| CCn1c(-c2c(F)cc(OC)cc2F)c(-c2ocnc2Br)cc(Cl)c1=O [Compound 118] | H (H shows the control value more than 50%) | L (L shows the control value of 50% or less) |
| CCn1c(-c2c(F)cc(NC)cc2F)c(-c2cnco2)cc(Cl)c1=O [Compound 119] | L (L shows the control value of 50% or less) | L (L shows the control value of 50% or less) |
| CCn1c(-c2c(F)cc(F)cc2F)c(-c2ocnc2F)cc(Cl)c1=O [Compound 120] | H (H shows the control value more than 50%) | L (L shows the control value of 50% or less) |

| Structure (SMILES) | Test A control value (Magnaporthe grisea) | Test F control value (Phytophthora infestans) |
| --- | --- | --- |
| O=c1c(Cl)cc(-n2cc(Cl)cn2)c(-c2c(F)cc(F)cc2F)n1CC(F)(F)F [Compound 121] | H (H shows the control value more than 50%) | L (L shows the control value of 50% or less) |
| COc1cc(F)c(-c2c(-n3cc(Cl)cn3)cc(Cl)c(=O)n2CC(F)(F)F)c(F)c1 [Compound 122] | H (H shows the control value more than 50%) | L (L shows the control value of 50% or less) |
| CCn1c(-c2c(F)cc(F)cc2F)c(-n2cc(C=O)cn2)cc(Cl)c1=O [Compound 123] | L (L shows the control value of 50% or less) | L (L shows the control value of 50% or less) |
| CCn1c(-c2c(F)cc(F)cc2F)c(-n2cc(C(F)F)cn2)cc(Cl)c1=O [Compound 124] | H (H shows the control value more than 50%) | L (L shows the control value of 50% or less) |
| CCn1c(-c2c(F)cc(F)cc2F)c(-n2c(C)ccc2C)cc(Cl)c1=O [Compound 125] | H (H shows the control value more than 50%) | L (L shows the control value of 50% or less) |
| CCn1c(-c2c(F)cc(OC)cc2F)c(-n2c(C)ccc2C)cc(Cl)c1=O [Compound 126] | H (H shows the control value more than 50%) | L (L shows the control value of 50% or less) |
| CCn1c(-c2c(F)cc(OC)cc2F)c(-c2ocnc2F)cc(Cl)c1=O [Compound 127] | H (H shows the control value more than 50%) | L (L shows the control value of 50% or less) |
| CCn1c(-c2c(F)cc(F)cc2F)c(-n2cc(OC)cn2)cc(Cl)c1=O [Compound 128] | L (L shows the control value of 50% or less) | L (L shows the control value of 50% or less) |
| CCOC(=O)c1cncn1-c1cc(Cl)c(=O)n(CC)c1-c1c(F)cc(F)cc1F [Compound 129] | H (H shows the control value more than 50%) | L (L shows the control value of 50% or less) |
| CCn1c(-c2c(F)cccc2F)c(-c2cnc(OC)o2)cc(Cl)c1=O [Compound 130] | L (L shows the control value of 50% or less) | L (L shows the control value of 50% or less) |
| CCn1c(-c2c(F)cccc2F)c(-c2cnc(N(C)C)o2)cc(Cl)c1=O [Compound 131] | L (L shows the control value of 50% or less) | L (L shows the control value of 50% or less) |
| CCn1c(-c2c(F)cc(F)cc2F)c(-n2cccc2)cc(Cl)c1=O [Compound 132] | H (H shows the control value more than 50%) | L (L shows the control value of 50% or less) |
| CCn1c(-c2c(F)cc(F)cc2F)c(-n2c(Cl)ccc2Cl)cc(Cl)c1=O [Compound 133] | H (H shows the control value more than 50%) | L (L shows the control value of 50% or less) |
| CCn1c(-c2c(F)cccc2F)c(-c2cnc(NC)o2)cc(Cl)c1=O [Compound 134] | L (L shows the control value of 50% or less) | L (L shows the control value of 50% or less) |
| CCn1c(-c2c(F)cccc2F)c(-c2cnc(N)o2)cc(Cl)c1=O [Compound 135] | L (L shows the control value of 50% or less) | L (L shows the control value of 50% or less) |
| CCn1c(-c2c(F)cc(F)cc2F)c(-n2c(Cl)nc(Cl)c2Cl)cc(Cl)c1=O [Compound 137] | H (H shows the control value more than 50%) | L (L shows the control value of 50% or less) |
